Data taken from PubChem BioAssay AID1460 (National Center for Advancing Translational Sciences (NCATS), 2008).
In all, about 270,000 compounds went through this assay and about 5,800 (2.1%) were called active. Not shown: some 16% with an inconclusive outcome. The call rests on the fitted dose curve; in most records, active means well fitted inhibition curve with a large enough effect; inconclusive means small, poorly fitted or top-dose-only effect; inactive means flat fitted curve, though single readings scatter. This is a selection; strong and weak results do not stand in their true shares. Some structures have more than one record in an assay (separate samples or runs), and their calls can disagree.

What follows are compounds tested against Microtubule-associated protein tau (Homo sapiens) (UniProt P10636) (assay: qHTS for Inhibitors of Tau Fibril Formation, Thioflavin T Binding). Settings: recombinant tau K18 P301L, heparin-induced fibrillization, ThT fluorescence; series mostly up to 57.4 µM; activity, negative = inhibition: at the top concentration.
Procedure, shortened: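 Using a mix of unlabeled (15 uM) and Alexa 594-labeled (0.24 uM) tau K18 P301L, heparin-triggered fibrillization over 6 hr at 37 C was scored by ThT fluorescence.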
Further: nearly all actives have a fitted effect of over 55% in size.
On the % scale 0 is the no-effect control and ±100 the full control effect; potency means the concentration at half of the fitted maximal effect.

Chain of UniProt P10636 (P10636 whole entry, looked up): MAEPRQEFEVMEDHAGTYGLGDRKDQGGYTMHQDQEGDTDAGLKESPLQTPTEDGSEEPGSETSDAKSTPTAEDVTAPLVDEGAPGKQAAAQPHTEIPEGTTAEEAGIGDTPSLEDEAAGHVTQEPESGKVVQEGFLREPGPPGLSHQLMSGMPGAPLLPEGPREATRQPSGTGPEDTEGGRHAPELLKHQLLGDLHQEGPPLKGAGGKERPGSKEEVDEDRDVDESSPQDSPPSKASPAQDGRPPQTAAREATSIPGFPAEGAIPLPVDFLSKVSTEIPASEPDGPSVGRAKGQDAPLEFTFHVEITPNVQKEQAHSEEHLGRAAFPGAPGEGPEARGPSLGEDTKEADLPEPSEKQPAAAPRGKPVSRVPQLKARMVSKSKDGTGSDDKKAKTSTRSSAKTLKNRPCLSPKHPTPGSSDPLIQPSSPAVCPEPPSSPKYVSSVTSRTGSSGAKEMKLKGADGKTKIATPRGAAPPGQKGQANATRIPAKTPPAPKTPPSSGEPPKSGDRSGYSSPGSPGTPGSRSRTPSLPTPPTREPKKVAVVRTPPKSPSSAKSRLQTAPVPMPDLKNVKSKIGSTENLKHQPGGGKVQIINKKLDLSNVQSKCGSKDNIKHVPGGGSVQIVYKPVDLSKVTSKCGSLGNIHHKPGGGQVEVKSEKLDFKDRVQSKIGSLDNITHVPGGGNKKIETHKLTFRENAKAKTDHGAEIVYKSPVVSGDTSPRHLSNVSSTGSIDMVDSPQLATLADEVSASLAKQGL

| Compound | activity, negative = inhibition | Potency |
| --- | --- | --- |
| CCCCC1=CC2=C(c3ccco3)C(=O)C(C)(OC(=O)c3ccc(OC)cc3)C(=O)C2=CN1C1CCCCC1 (stereo not drawn) | inactive: 2.32% [at 11.5 µM] | – |
| COc1ccccc1C(=O)n1nc(-c2cccnc2)nc1NCc1ccccc1 | inactive: -10.5% | – |
| COc1ccc(-c2csc3nc(-c4ccccc4)oc(=O)c23)cc1OC | inactive: 6.22% | – |
| Cc1ccc(C(=O)N/C(=C/c2ccco2)C(=O)NCCc2c[nH]c3ccccc23)cc1 | inactive: -6.85% | – |
| COc1ccc2cc([C@H](C)C(=O)O)ccc2c1 | – | inactive |
| COC(=O)c1ccc(-c2nc(O)c(C)s2)cc1 | – | active: 12.6 µM |
| CO[C@H]1COC(=O)C/C=C\[C@H](C)[C@@H](NS(=O)(=O)c2ccc(C)cc2)COC(=O)C/C=C\[C@@H]1C | inactive: -6.06% [at 11.5 µM] | – |
| O=C1OCCN1C(=O)[C@H]1[C@H](c2ccc([N+](=O)[O-])cc2)C(c2cccc(Cl)c2)=NN1c1ccccc1 | inactive: -7.34% | – |
| Clc1ccc(C[n+]2csc3ccccc32)cc1 | – | active: 22.4 µM |
| CC1=C(/C=C/C(C)=C/C=C/C(C)=C/CO)C(C)(C)CCC1 | inactive: -10.4% | – |
| Oc1ccc(-c2nc(-c3ccc(F)cc3)c(-c3ccncc3)[nH]2)cc1 | – | inactive |
| NC(Cc1cc(I)c(Oc2ccc(O)c(I)c2)c(I)c1)C(=O)O (stereo not drawn) | inactive: -16.5% | – |
| Cc1ccc(NC(=O)CSc2nc(C)c(Cc3ccccc3)c(=O)[nH]2)cc1 | inactive: -16% | – |
| CC1=C(C(=O)O)N2C(=O)C(NC(=O)C(N)c3ccccc3)C2SC1 (stereo not drawn) | inactive: -10.4% | – |
| COc1cc(NC(=O)CSc2c3c(nc4ccccc24)CCC3)cc(OC)c1OC | inactive: -15.5% | – |
| COC(=O)[C@H]1C[C@@H]1[C@H](NC(=O)Oc1ccc(F)cc1)c1ccccc1 | inactive: -1.71% | – |
| N[C@@H](Cc1c[nH]c2ccccc12)C(=O)O | inactive: -17.2% | – |
| C[C@@H]1C=C(C(=O)N2CCOCC2)O[C@H](OCc2ccc(CO)cc2)C1 | inactive: -7.73% | – |
| COc1ccc(N)c2c1C(=O)c1ccccc1C2=O | – | active: 15.8 µM |
| CC(=O)OC[C@@H]1O[C@H](C/C=N\O[C@@H]2O[C@H](COC(C)=O)[C@@H](OC(C)=O)[C@H](OC(C)=O)[C@H]2OC(C)=O)C=C[C@@H]1OC(C)=O | inactive: -2.98% [at 11.5 µM] | – |
| S=C(NNc1cccc(Cl)c1)NC1CCCCC1 | – | active: 25.1 µM |
| COc1ccc(N2CCN(C(=O)C3CCN(S(=O)(=O)c4cccs4)CC3)CC2)cc1 | inactive: -15.6% | – |

| Compound | activity, negative = inhibition | Potency |
| --- | --- | --- |
| COC(=O)c1ccc(C(NC(=O)OCc2ccccc2)/C(F)=C/[C@@H](C)C(=O)NCc2ccc(OC)c(OC)c2)cc1 (stereo partly drawn) | inactive: -17.7% | – |
| CC(=O)c1ccc(NC(=S)Nc2ccc3cn[nH]c3c2)cc1 | – | active: 15.8 µM |
| O=C(Nc1ccccc1)N(O)c1ccc(Cl)cc1 | – | active: 25.1 µM |
| CCc1ccc2nc3sc(C(=O)Nc4nnc(CC)s4)c(N)c3cc2c1 | – | active: 3.98 µM |
| C=CCN1C(=O)/C(=C2/C(=O)N(CC(=O)O)c3ccccc32)S/C1=N/c1nccs1 | – | active: 7.08 µM |
| O=C(NCc1ccccc1)C1=C[C@H](c2coc3ccccc3c2=O)C[C@H](OCc2ccc(CO)cc2)O1 | inactive: -12.5% | – |
| CC(C)c1ccc2c(c1)CCC1C(C)(CN)CCCC21C (stereo not drawn) | inactive: -4.43% | – |
| N#C/C(=C\c1ccc(N2CCOCC2)o1)C(=O)N1CCOCC1 | inactive: -14.6% | – |
| C[C@@H]1C[C@H]2[C@@H]3CCC4=CC(=O)C=C[C@]4(C)[C@@]3(F)[C@@H](O)C[C@]2(C)[C@@]1(O)C(=O)COP(=O)(O)O | – | inactive |
| CCC[C@@H]1C[C@@]1(CCC)[C@@H](NP(=O)(c1ccccc1)c1ccccc1)c1ccc(C(=O)OC)cc1 | inactive: -26.3% | – |
| CCCCC1=CC2=CC(=O)C(C)(OC(=O)CC)C(=O)C2=CN1CCc1c[nH]c2ccccc12 (stereo not drawn) | inactive: 7.83% [at 11.5 µM] | – |
| CC(=O)N(Cc1ccc(F)cc1)C1=C(NCc2ccccc2)C(=O)c2ccccc2C1=O | – | active: 28.2 µM |
| O=[N+]([O-])c1ccc2cn[nH]c2c1 | inactive: 0.0145% | – |
| CC(=O)c1ccc(N2CCN(C(=O)Nc3ccc(C)cc3)CC2)cc1 | inactive: -5.47% | – |
| CCCCC/C=C/C=C1/C(=O)C=C[C@@H]1C/C=C\CCCC(=O)O | – | inactive |
| COC(=O)C1(C(C)=O)CC2=CC[C@H]3C(=O)N(c4ccccc4)C(=O)[C@H]3[C@@H]2Cc2ccccc2[C@@H]1C[N+](=O)[O-] (stereo partly drawn) | – | inactive |
| COc1cccc(-c2cc(=O)c3cc(NC(=O)c4ccccc4)ccc3[nH]2)c1 | inactive: -22.7% [at 81.4 µM] | – |
| Cc1ccccc1NC(=O)CSc1nc2ccccc2c2nc(CCn3cncc3C)nn12 | inactive: 14.9% | – |
| Cc1cc(C)cc(NC(=O)CSc2nc3c(c(=O)[nH]2)CN(Cc2ccc(F)cc2)CC3)c1 | inactive: -2.61% | – |
| Nc1c2ccccc2nc2ccccc12 | inactive: -6.89% | – |
| CO[C@@H]1COC(=O)C/C=C\[C@H](C)[C@H](OC)COC(=O)[C@H](C)NC(=O)C/C=C\[C@H]1C | inactive: -3.49% [at 11.5 µM] | – |
| COc1ccc2c(c1)c(CC(=O)O)c(C)n2C(=O)c1ccc(Cl)cc1 | – | inactive |

| Compound | activity, negative = inhibition | Potency |
| --- | --- | --- |
| Cn1cc(C(=O)N/N=C/C(Br)=C\c2ccccc2)ccc1=O | inactive: -8.44% | – |
| CC(C)Cn1c(N)c(C(=O)COC(=O)c2cc(-c3ccco3)nc3ccccc23)c(=O)n(C)c1=O | inactive: -14.2% | – |
| CCN(CC)C(=O)/C(=C\c1ccc2c(c1)OCO2)NC(=O)c1ccc(Br)cc1 | inactive: -8.77% | – |
| COc1ccc(O[C@H]2C=C[C@@H](c3ccccc3)O[C@H]2COC(=O)CC/C(C)=N/O[C@@H]2O[C@H](COC(C)=O)[C@H](OC(C)=O)[C@H](OC(C)=O)[C@H]2OC(C)=O)cc1 | inactive: -5.68% [at 11.5 µM] | – |
| CC(C)C[C@H](NC(=O)[C@H](O)[C@H](N)Cc1ccccc1)C(=O)O | inactive: -3.5% | – |
| CCCn1c(N)[n+](CC(=O)c2ccco2)c2ccccc21 | inactive: -2.79% | – |
| O=C(C1=C[C@H](c2coc3ccccc3c2=O)C[C@H](OCCCCO)O1)N1CCN(Cc2ccccc2)CC1 | inactive: -5.55% | – |
| CN1CCN(CCCN2c3ccccc3Sc3ccc(C(F)(F)F)cc32)CC1 | inactive: -18.8% | – |
| COC(=O)Nc1nc2ccc(C(=O)c3cccs3)cc2[nH]1 | – | inactive |
| CN=C(NC#N)NCCSCc1csc(N=C(N)N)n1 | inactive: -4.55% | – |
| CCCC(=O)O[C@@H]1C[C@@H](C)N(C(=O)c2ccccc2)c2ccc(C)cc21 | inactive: -13.4% | – |
| CC1=C(C(=O)OCc2ccccc2)C(c2ccc(Cl)cc2)NC(=O)N1CCCCCC(=O)O (stereo not drawn) | inactive: -15.1% | – |
| CCOc1cc(/C=C2/C(=O)ON=C2C)ccc1OCc1ccccc1 | inactive: -16.3% | – |
| CCCCCCCCCCCCCCC[C@H](O)[C@H](N)CO | inactive: -7.91% | – |
| Oc1c(I)cc(Cl)c2cccnc12 | inactive: -20.1% | – |
| O=C(NCc1ccccc1)[C@H]1C[C@@H]1[C@H](NP(=O)(c1ccccc1)c1ccccc1)c1ccccc1 | inactive: 11% | – |
| COc1cccc(-n2c(C)c3c(OC)cccc(=O)c3c2C)c1 | – | active: 25.1 µM |
| COCCCNC(=O)CSc1nc2cc3c(cc2c(=O)n1CCCC(=O)NCc1ccc(OC)cc1)OCO3 | inactive: 5.56% | – |
| COc1ccc(Nc2ncc(C(=O)N3CCN(c4ccc(F)cc4)CC3)c3ccccc23)cc1 | inactive: -10.9% | – |
| O=C(O)COc1ccc(/C=C/c2ccc3cccc([N+](=O)[O-])c3n2)cc1 | – | active: 7.94 µM |
| O=C(CSc1nc2ccccc2[nH]1)N/N=C/C=C\c1ccccc1[N+](=O)[O-] | inactive: -1.96% | – |
| O=C1/C(=C/c2cccnc2)SC(=S)N1Nc1ccccc1 | – | active: 28.2 µM |

| Compound | activity, negative = inhibition | Potency |
| --- | --- | --- |
| CCOC(=O)c1cc2c(=O)n3ccccc3nc2n(CCOC)c1=NC(=O)c1c(-c2c(F)cccc2Cl)noc1C | inactive: -14.9% | – |
| CC1(OC(=O)C2CCCC2)C(=O)C=C2C=C(c3ccsc3)N(CCc3c[nH]c4ccccc34)C=C2C1=O (stereo not drawn) | inactive: -5.82% [at 11.5 µM] | – |
| Cc1ccccc1/C=C\c1nc2ccccc2c(=O)[nH]1 | inactive: -7.04% | – |
| O=C(C1=C[C@@H](c2csc3ccccc23)C[C@@H](OCc2ccc(CO)cc2)O1)N1CCN(Cc2ccccc2)CC1 | inactive: -17% | – |
| CCOC(=O)c1cc2c(=O)n3ccccc3nc2n(Cc2ccco2)c1=NC(=O)c1ccc(OC)cc1 | inactive: -10.3% | – |
| CCN(CC)c1ccc(/C=N/Nc2nc3ccccc3[nH]2)c(O)c1 | – | active: 14.1 µM |
| C[C@@H](C(=O)NCc1ccccc1)[C@H]1C[C@]1(C)[C@H](NC(=O)OCc1ccccc1)c1ccccc1 | – | inactive |
| COc1cc(/C=N/NC(=O)[C@H](Cc2c[nH]c3ccccc23)NC(=O)OCC(C)C)cc([N+](=O)[O-])c1O | – | active: 14.1 µM |
| C=C(C)C1(O)OC(=O)C=C1OC (stereo not drawn) | inactive: -3.56% | – |
| CC12CCC3c4ccc(O)cc4CCC3C1CCC2=O (stereo not drawn) | inactive: -2.25% | – |
| NCCCNCCCCNCCCN | inactive: -3.23% | – |
| CC1=NN(c2ccccc2)C(=O)C1 | inactive: -21% | – |
| CC(=O)CC1OC(=O)C(Br)=C1NCc1ccccc1 (stereo not drawn) | – | active: 8.91 µM |
| N#C/C(=C\c1ccccc1)C(=O)Nc1sc2c(c1C(N)=O)CCC2 | – | active: 1.41 µM |
| N#Cc1c(NC(=O)c2ccc(Br)o2)n(-c2ccccc2)c2nc3ccccc3nc12 | – | active: 25.1 µM |
| CC(=O)Nc1ccc2nc3c(=O)n(C)c(=O)n(C)c3nc2c1 | – | active: 17.8 µM |
| C#CCNC(=O)C1=C[C@H](c2ccc(Br)cc2)C[C@H](OCCCCO)O1 | inactive: -13.3% | – |
| CC(C)[N+](C)(CCOC(=O)C1c2ccccc2Oc2ccccc21)C(C)C | – | inactive |
| C1COC(NC(C2CC2)C2CC2)=N1 | – | inactive |
| COC(=O)CCCC1=CC2=C(c3ccccc3)C(=O)C(C)(OC(=O)C3CCCC3)C(=O)C2=CN1c1ccc(OC)cc1 (stereo not drawn) | inactive: 5.82% [at 11.5 µM] | – |
| C[C@@H](C(=O)NCc1ccc(S(C)(=O)=O)cc1)[C@H]1C[C@]1(C)[C@H](NC(=O)OCc1ccccc1)c1ccccc1 | inactive: -12.4% | – |
| COCCn1c(C(=O)N2CCCC2)cc2c1C[C@H]1CN(C(=O)c3ccccc3)[C@@](Cc3ccc(F)cc3)(C(=O)OC)[C@@H]21 | inactive: -8.82% | – |
